Results: the supplement of paper PMC8728848
The list shows a part of the results.

Columns and labels:
Test in all cases: glycan array binding signal (z-score within array); higher = stronger binding
Settings in all cases: glycan notation: IUPAC condensed, linker removed
[1] = target: Fuc(a1-3)[Gal(b1-4)]GlcNAc(b1-4)Gal(b1-4)[Fuc(a1-3)]GlcNAc
Outline: (§1)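 Glycan array data were curated from 3228 arrays in the Consortium for Functional Glycomics database and kept only where the protein sequence was available. Glycan names were converted to IUPAC-condensed notation, and columns mapping to the same glycan were averaged. The binding signal is a within-array Z-score, averaged across arrays of the same protein sequence at different concentrations or buffers and across linkers. Negative Z-scores can be read as non-binding.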

[2] = target: Fuc(a1-3)[Gal(b1-4)]GlcNAc(b1-4)Gal(b1-4)[Fuc(a1-3)]GlcNAc(b1-4)Gal(b1-4)[Fuc(a1-3)]GlcNAc
Outline: as §1

[3] = target: Fuc(a1-3)[Gal(b1-4)]GlcNAc(b1-6)GalNAc
Outline: as §1

[4] = target: Fuc(a1-3)[Gal(b1-4)]GlcNAc(b1-6)[Gal(b1-3)GlcNAc(b1-3)]Gal(b1-4)Glc
Outline: as §1

[5] = target: Fuc(a1-3)[Gal(b1-4)]GlcNAc(b1-6)[Neu5Ac(a2-3)Gal(b1-3)]GalNAc
Outline: as §1

[6] = target: Fuc(a1-3)[Gal(b1-4)]GlcNAc6S
Outline: as §1

[7] = target: Fuc(a1-3)[Gal3S(b1-4)]GlcNAc
Outline: as §1

[8] = target: Fuc(a1-3)[Gal3S(b1-4)]GlcNAc6S
Outline: as §1

[9] = target: Fuc(a1-3)[GalNAc(b1-4)]GlcNAc
Outline: as §1

[10] = target: Fuc(a1-3)[GalNAc(b1-4)]GlcNAc6S
Outline: as §1

[11] = target: Fuc(a1-3)[GalNAc3S(b1-4)]GlcNAc
Outline: as §1

[12] = target: Fuc(a1-4)GlcNAc
Outline: as §1

[13] = target: Fuc(b1-3)GlcNAc
Outline: as §1

[14] = target: Gal(a1-2)Gal
Outline: as §1

[15] = target: Gal(a1-3)Gal
Outline: as §1

[16] = target: Gal(a1-3)Gal(b1-3)GlcNAc
Outline: as §1

[17] = target: Gal(a1-3)Gal(b1-3)GlcNAc(b1-2)Man(a1-3)[Gal(a1-3)Gal(b1-3)GlcNAc(b1-2)Man(a1-6)]Man(b1-4)GlcNAc(b1-4)GlcNAc
Outline: as §1

[18] = target: Gal(a1-3)Gal(b1-3)GlcNAc(b1-3)GalNAc
Outline: as §1

[19] = target: Gal(a1-3)Gal(b1-3)GlcNAc(b1-6)GalNAc
Outline: as §1

[20] = target: Gal(a1-3)Gal(b1-3)[Fuc(a1-4)]GlcNAc(b1-2)Man(a1-3)[Gal(a1-3)Gal(b1-3)[Fuc(a1-4)]GlcNAc(b1-2)Man(a1-6)]Man(b1-4)GlcNAc(b1-4)GlcNAc
Outline: as §1

[21] = target: Gal(a1-3)Gal(b1-4)Glc
Outline: as §1

[22] = target: Gal(a1-3)Gal(b1-4)GlcNAc
Outline: as §1

[23] = target: Gal(a1-3)Gal(b1-4)GlcNAc(b1-3)GalNAc
Outline: as §1

[24] = target: Gal(a1-3)Gal(b1-4)GlcNAc(b1-6)GalNAc
Outline: as §1

[25] = target: Gal(a1-3)Gal(b1-4)[Fuc(a1-3)]GlcNAc
Outline: as §1

[26] = target: Gal(a1-3)Gal(b1-4)[Fuc(a1-3)]GlcNAc(b1-2)Man(a1-3)[Gal(a1-3)Gal(b1-4)[Fuc(a1-3)]GlcNAc(b1-2)Man(a1-6)]Man(b1-4)GlcNAc(b1-4)GlcNAc
Outline: as §1

[27] = target: Gal(a1-3)GalNAc
Outline: as §1

[28] = target: Gal(a1-3)[Gal(a1-4)]Gal(b1-4)GlcNAc
Outline: as §1

[29] = target: Gal(a1-4)Gal(b1-3)GlcNAc(b1-2)Man(a1-3)[Gal(a1-4)Gal(b1-3)GlcNAc(b1-2)Man(a1-6)]Man(b1-4)GlcNAc(b1-4)GlcNAc
Outline: as §1

[30] = target: Gal(a1-4)Gal(b1-4)Glc
Outline: as §1

[31] = target: Gal(a1-4)Gal(b1-4)GlcNAc
Outline: as §1

[32] = target: Gal(a1-4)Gal(b1-4)GlcNAc(b1-2)Man(a1-3)[Gal(a1-4)Gal(b1-4)GlcNAc(b1-2)Man(a1-6)]Man(b1-4)GlcNAc(b1-4)GlcNAc
Outline: as §1

[33] = target: Gal(a1-4)Gal(b1-4)GlcNAc(b1-3)Gal(b1-4)Glc
Outline: as §1

[34] = target: Gal(a1-4)GlcNAc
Outline: as §1

[35] = target: Gal(a1-6)Glc
Outline: as §1

[36] = target: Gal(b1-2)Gal
Outline: as §1

[37] = target: Gal(b1-3)Gal
Outline: as §1

[38] = target: Gal(b1-3)Gal(b1-4)GlcNAc
Outline: as §1

[39] = target: Gal(b1-3)Gal(b1-4)GlcNAc(b1-2)Man(a1-3)[Gal(b1-3)Gal(b1-4)GlcNAc(b1-2)Man(a1-6)]Man(b1-4)GlcNAc(b1-4)GlcNAc
Outline: as §1

[40] = target: Gal(b1-3)GalNAc
Outline: as §1

[41] = target: Gal(b1-3)GalNAc(a1-3)[Fuc(a1-2)]Gal(b1-4)Glc
Outline: as §1

[42] = target: Gal(b1-3)GalNAc(a1-3)[Fuc(a1-2)]Gal(b1-4)GlcNAc
Outline: as §1

[43] = target: Gal(b1-3)GalNAc(b1-3)Gal(a1-4)Gal(b1-4)Glc
Outline: as §1

[44] = target: Gal(b1-3)GalNAc(b1-4)Gal(b1-4)Glc
Outline: as §1

[45] = target: Gal(b1-3)GalNAc(b1-4)[Neu5Ac(a2-3)]Gal(b1-4)Glc
Outline: as §1

[46] = target: Gal(b1-3)GlcNAc
Outline: as §1

[47] = target: Gal(b1-3)GlcNAc(a1-3)Gal(b1-4)GlcNAc
Outline: as §1

[48] = target: Gal(b1-3)GlcNAc(a1-6)Gal(b1-4)GlcNAc
Outline: as §1

[49] = target: Gal(b1-3)GlcNAc(b1-2)Man(a1-3)[Gal(b1-3)GlcNAc(b1-2)Man(a1-6)]Man(b1-4)GlcNAc(b1-4)GlcNAc
Outline: as §1

[50] = target: Gal(b1-3)GlcNAc(b1-2)Man(a1-3)[Gal(b1-3)GlcNAc(b1-2)Man(a1-6)]Man(b1-4)GlcNAc(b1-4)[Fuc(a1-6)]GlcNAc
Outline: as §1

[51] = target: Gal(b1-3)GlcNAc(b1-2)Man(a1-3)[GlcNAc(b1-4)][Gal(b1-3)GlcNAc(b1-2)Man(a1-6)]Man(b1-4)GlcNAc(b1-4)GlcNAc
Outline: as §1

[52] = target: Gal(b1-3)GlcNAc(b1-2)[Gal(b1-3)GlcNAc(b1-6)]Man(a1-6)[Gal(b1-3)GlcNAc(b1-2)Man(a1-3)]Man(b1-4)GlcNAc(b1-4)GlcNAc
Outline: as §1

[53] = target: Gal(b1-3)GlcNAc(b1-3)Gal(b1-3)GlcNAc
Outline: as §1

[54] = target: Gal(b1-3)GlcNAc(b1-3)Gal(b1-4)Glc
Outline: as §1

[55] = target: Gal(b1-3)GlcNAc(b1-3)Gal(b1-4)GlcNAc
Outline: as §1

[56] = target: Gal(b1-3)GlcNAc(b1-3)Gal(b1-4)GlcNAc(b1-6)[Gal(b1-3)GlcNAc(b1-3)]Gal(b1-4)Glc
Outline: as §1

[57] = target: Gal(b1-3)GlcNAc(b1-3)Gal(b1-4)[Fuc(a1-3)]GlcNAc(b1-6)[Gal(b1-3)GlcNAc(b1-3)]Gal(b1-4)Glc
Outline: as §1

[58] = target: Gal(b1-3)GlcNAc(b1-3)GalNAc
Outline: as §1

[59] = target: Gal(b1-3)GlcNAc(b1-6)Gal(b1-4)GlcNAc
Outline: as §1

[60] = target: Gal(b1-3)GlcNAc(b1-6)GalNAc
Outline: as §1

B1: PitA (Streptococcus oralis), G3F8D8 (protein)
chain: MNIRFDFKKVQIIARRLVTLLAILFLCAPISLLNADSTTEPQTTLHKTITPISGQDDKYELSLDITSKLGTETQTDPLDVVLVADLSGSMQNQDVQSFDGRTISRIDALKNTLRGTNGRKGLIDTILSNSNNRLSMVGFGGKIDNKKVDQYWDGNKWRLFRPYWPYERMTKYYDGVSPWDDANTILGWSNNARAAKTAVYNMSIAGGNSIGTESGIGTGTNIGAGLTLANQLMGSARSNAKKVVILLSDGFANMVYDANGYTIYNYNNEDPNIETAPQWFWDRLNNNLNSLSYSLAPTLDGFYSIKFRYSNNVDSITSLQYYMRQHNASIPNEIFSANDEDQLRDSFKDITDKILPLGIHHVSIKDVLSKYVQLLPNGSSEFRVVKEKDGSSEILIENQVTFDTKTTSEGLVEVTAKFSPNYSLEDGARYVLKFTVTSSQEALDAIAGDKKLEAGDAEGSDVNKLYSNKGASVTYSYGIGNSQTKTKEYSDNPTFKPSDPLTVPVEVEWQGVTGARTVITADQPSNVELKLVQKNKNGGSDNQDYRKTNVNVSKNVSNETRNFEKVAKGYQYDLIAPDVPAFTKEIKNVGTESKPSFKVIYKQLPSLTIKKVLEAENNLNKEFRIKVKLTSPDSKPLNGTFGEITVVNGEAEIRVEKRKRWEGILSYLPRGTHYKVEEEAASTNGYHVTYENQEGDLNKDETSIVTNHKLPSLSVTKKVTGVFANLLKSFKITINIRDAQNSPLNGTYTATVNNKRTPLQFTNGRASIDLNKDQTIKIYGLPLDSHYTVEEESNSSRGYQVSYENQEGKLDGDKSATVTNNKNSVPETGVDFLSSTLMLGIILPLGGIFFTILLGYLVVHRRK
glycan array binding signal (z-score) [1]: 0.05 | glycan array binding signal (z-score) [2]: -0.375 | glycan array binding signal (z-score) [3]: 4.67 | glycan array binding signal (z-score) [4]: -0.739 | glycan array binding signal (z-score) [5]: 0.046 | glycan array binding signal (z-score) [6]: 0.782 | glycan array binding signal (z-score) [7]: -0.455 | glycan array binding signal (z-score) [8]: 2.16 | glycan array binding signal (z-score) [9]: -0.019 | glycan array binding signal (z-score) [10]: -0.59 | glycan array binding signal (z-score) [11]: -0.108 | glycan array binding signal (z-score) [12]: -0.34 | glycan array binding signal (z-score) [13]: 0.191 | glycan array binding signal (z-score) [14]: -0.212 | glycan array binding signal (z-score) [15]: -0.309 | glycan array binding signal (z-score) [16]: -0.011 | glycan array binding signal (z-score) [17]: 3.83 | glycan array binding signal (z-score) [18]: 1.07 | glycan array binding signal (z-score) [19]: -0.069 | glycan array binding signal (z-score) [20]: 1.2 | glycan array binding signal (z-score) [21]: -0.425 | glycan array binding signal (z-score) [22]: -0.128 | glycan array binding signal (z-score) [23]: -0.028 | glycan array binding signal (z-score) [24]: -0.41 | glycan array binding signal (z-score) [25]: -0.592 | glycan array binding signal (z-score) [26]: 1.4 | glycan array binding signal (z-score) [27]: -0.289 | glycan array binding signal (z-score) [28]: -0.208 | glycan array binding signal (z-score) [29]: 1.42 | glycan array binding signal (z-score) [30]: -0.046 | glycan array binding signal (z-score) [31]: 0.041 | glycan array binding signal (z-score) [32]: 1.71 | glycan array binding signal (z-score) [33]: 0.077 | glycan array binding signal (z-score) [34]: -0.318 | glycan array binding signal (z-score) [35]: 0.157 | glycan array binding signal (z-score) [36]: -0.442 | glycan array binding signal (z-score) [37]: -0.7 | glycan array binding signal (z-score) [38]: -0.462 | glycan array binding signal (z-score) [39]: -0.561 | glycan array binding signal (z-score) [40]: -0.247 | glycan array binding signal (z-score) [41]: 0.341 | glycan array binding signal (z-score) [42]: -0.606 | glycan array binding signal (z-score) [43]: 0.303 | glycan array binding signal (z-score) [44]: -0.576 | glycan array binding signal (z-score) [45]: -0.464 | glycan array binding signal (z-score) [46]: -0.71 | glycan array binding signal (z-score) [47]: -0.324 | glycan array binding signal (z-score) [48]: -0.696 | glycan array binding signal (z-score) [49]: -0.097 | glycan array binding signal (z-score) [50]: -0.117 | glycan array binding signal (z-score) [51]: 1.74 | glycan array binding signal (z-score) [52]: -0.137 | glycan array binding signal (z-score) [53]: -0.226 | glycan array binding signal (z-score) [54]: -0.108 | glycan array binding signal (z-score) [55]: -0.282 | glycan array binding signal (z-score) [56]: -0.571 | glycan array binding signal (z-score) [57]: -0.53 | glycan array binding signal (z-score) [58]: -0.204 | glycan array binding signal (z-score) [59]: -0.172 | glycan array binding signal (z-score) [60]: -0.442
